Laboratory results as given in patent publication US20230272116A1, “ANTIBODIES WHICH BIND TO CANCER CELLS AND TARGET RADIONUCLIDES TO SAID CELLS” (Hoffmann-La Roche Inc., priority 2020, published 2023).

T1: CEA on MKN-45 cells (Homo sapiens, UniProt P06731)
T1 construct: endogenous in cells; host or cells: MKN-45 cells
T1 sequence (P06731 35-676): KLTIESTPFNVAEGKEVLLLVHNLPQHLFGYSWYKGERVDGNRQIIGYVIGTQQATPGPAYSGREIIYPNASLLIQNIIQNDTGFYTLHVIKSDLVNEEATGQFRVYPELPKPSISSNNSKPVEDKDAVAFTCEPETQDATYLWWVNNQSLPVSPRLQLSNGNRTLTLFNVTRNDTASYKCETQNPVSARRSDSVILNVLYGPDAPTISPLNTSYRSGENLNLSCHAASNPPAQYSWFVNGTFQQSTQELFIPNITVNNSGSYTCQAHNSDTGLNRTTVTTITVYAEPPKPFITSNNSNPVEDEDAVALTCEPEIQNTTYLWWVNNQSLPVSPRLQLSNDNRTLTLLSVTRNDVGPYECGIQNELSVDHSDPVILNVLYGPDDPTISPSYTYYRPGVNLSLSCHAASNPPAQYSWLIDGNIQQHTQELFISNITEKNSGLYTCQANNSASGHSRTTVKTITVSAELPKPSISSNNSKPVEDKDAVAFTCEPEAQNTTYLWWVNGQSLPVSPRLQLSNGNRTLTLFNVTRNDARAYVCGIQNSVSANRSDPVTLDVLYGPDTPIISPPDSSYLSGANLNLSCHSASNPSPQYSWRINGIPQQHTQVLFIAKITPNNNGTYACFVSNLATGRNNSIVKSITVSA


Assays:
[1] = FACS staining using DOTA-FITC: recruitment of Pb-DOTA-FITC to MKN-45 cells by SPLIT antibodies (Example 7); type: binding; conditions: antibodies 10 μg/mL final, 1 h 4° C.; Pb-DOTA-FITC equimolar; FIG. 24
Procedure: (§1) MKN-45 cells were detached from the culture bottle using Trypsin and were counted using a Casy cell counter. After pelleting at 4° C., 300 g the cells were resuspended in FACS Buffer (2.5% FCS in PBS), adjusted to 2.0E+06 cells/mL dispensed to 96-well PP V-bottom-Platte (25 μL/well=5.0E+04 Zellen/well).
The CEA specific SPLIT antibodies (P1AF0712 or P1AF0713 respectively) were adjusted to 40 μg/mL in FACS buffer, resulting in a final concentration of 10 μg/mL. Both antibodies were added to the cells either combined or separated and followed by buffer and incubated at 4° C. for 1 h. Subsequently, Pb-DOTA labeled with FITC was added to the cells in equimolar ratio to the antibodies and incubated for 1 h at 4° C. The cells were then washed twice in FACS buffer and resuspended in 70 μl/well FACS buffer for measurement using a FACS Canto (BD, Pharmingen). […] Only a combination of both SPLIT halves was able to recruit Pb-DOTAM-FITC to the target cells (FIG. 24).
(§2) EC50 was determined for the SPLIT antibodies using either secondary antibody based detection (488, top panel) or Pb-DOTA-FITC (DOTA-FITC, bottom panel)

CEA on MKN-45 cells = molecular target: T1, CEA on MKN-45 cells; experiment: FACS staining using <huIgG(H+L)A488>: EC50 of SPLIT antibody binding to MKN-45 cells (Example 7); conditions: secondary antibody <huIgG(H+L)>-Alexa488 10 μg/mL
Procedure: as §1
The CEA specific SPLIT antibodies (P1AF0712 or P1AF0713 respectively) were adjusted to 40 μg/mL in FACS buffer, resulting in a final concentration of 10 μg/mL. Both antibodies were added to the cells either separated followed by buffer or combined and incubated at 4° C. for 1 h. The cells were then washed twice in FACS buffer. After washing, the cells were resuspended in 50 μL FACS-buffer containing secondary antibody (<huIgG(H+L)>-Alexa488, c=10 μg/mL) and incubated 1 h at 4° C. The cells were then washed twice in FACS buffer and resuspended in 70 μl/well FACS buffer for measurement using a FACS Canto (BD, Pharmingen).
as §2

[2] = Expression analysis (protein yield) of N-terminal fusion format split antibodies (Example 10); conditions: HEK cell expression; for Yield after Prot A: after Protein A affinity step; for Final Yield: after final purification
From the text: In a first set, the VH and VL domain of the humanized DOTAM binder contained an N-terminal Q for the VH domain and an N-terminal A for the VL domain. In the second set, they contained an N-terminal G and S, respectively. It was observed that in this format, the antibody containing the VH domain of the humanized DOTAM binder was not successfully expressed with an N-terminal G but was successfully expressed with an N-terminal Q. G is not a typical residue at this position in a VH domain. An antibody containing the VL domain was successfully expressed with either an N-terminal S or A residue, both of which are typical residues at this position in a VL domain.

Row | EC50 of binding to MKN-45 cells (CEA on MKN-45 cells) | Molecule | Pb-DOTA-FITC fluorescence signal on MKN-45 cells [1] | Yield after Prot A [2] [mg/L] | Final Yield [2] [mg/L]
1 | comparable | P1AF0712: CEA (CH1A1A) SPLIT antibody with DOTA-VL; SEQ ID NO: 97, 98, light chain 103 (antibody) heavy 1: QVQLVQSGAEVKKPGASVKVSCKASGYTFTEFGMNWVRQAPGQGLEWMGWINTKTGEATYVEEFKGRVTFTTDTSTSTAYMELRSLRSDDTAVYYCARWDFAYYVEAMDYWGQGTTVTVSSASTKGPSVFPLAPSSKSTSGGTAALGCLVKDYFPEPVTVSWNSGALTSGVHTFPAVLQSSGLYSLSSVVTVPSSSLGTQTYICNVNHKPSNTKVDKKV[human IgG1 Fc with changes skipped] heavy 2: QVQLVQSGAEVKKPGASVKVSCKASGYTFTEFGMNWVRQAPGQGLEWMGWINTKTGEATYVEEFKGRVTFTTDTSTSTAYMELRSLRSDDTAVYYCARWDFAYYVEAMDYWGQGTTVTVSSASTKGPSVFPLAPSSKSTSGGTAALGCLVKDYFPEPVTVSWNSGALTSGVHTFPAVLQSSGLYSLSSVVTVPSSSLGTQTYICNVNHKPSNTKVDKKVEPKSCDKTHTCPPCPAPEAAGGPSVFLFPPKPKDTLMISRTPEVTCVVVDVSHEDPEVKFNWYVDGVEVHNAKTKPREEQYNSTYRVVSVLTVLHQDWLNGKEYKCKVSNKALGAPIEKTISKAKGQPREPQVCTLPPSRDELTKNQVSLSCAVKGFYPSDIAVEWESNGQPENNYKTTPPVLDSDGSFFLVSKLTVDKSRWQQGNVFSCSVMHEALHNHYTQKSLSLSPGGGGGSGGGGSGGGGSGGGGSQAVVIQESALTTPPGETVTLTCGSSTGAVTASNYANWVQEKPDHLFTGLIGGHNNRPPGVPARFSGSLIGDKAALTIAGTQTEDEAIYFCALWYSDHWVIGGGTKLTVL light: DIQMTQSPSSLSASVGDRVTITCKASAAVGTYVAWYQQKPGKAPKLLIYSASYRKRGVPSRFSGSGSGTDFTLTISSLQPEDFATYYCHQYYTYPLFTFGQGTKLEIKRTVAAPSVFIFPPSDEQLKSGTASVVCLLNNFYPREAKVQWKVDNALQSGNSQESVTEQDSKDSTYSLSSTLTLSKADYEKHKVYACEVTHQGLSSPVTKSFNRGEC | lack of Pb-DOTA binding capability |  | 
2 | comparable | P1AF0713: CEA (CH1A1A) SPLIT antibody with DOTA-VH-AST; SEQ ID NO: 100, 101, light chain 103 (antibody) heavy 1: QVQLVQSGAEVKKPGASVKVSCKASGYTFTEFGMNWVRQAPGQGLEWMGWINTKTGEATYVEEFKGRVTFTTDTSTSTAYMELRSLRSDDTAVYYCARWDFAYYVEAMDYWGQGTTVTVSSASTKGPSVFPLAPSSKSTSGGTAALGCLVKDYFPEPVTVSWNSGALTSGVHTFPAVLQSSGLYSLSSVVTVPSSSLGTQTYICNVNHKPSNTKVDKKVEPKSCDKTHTCPPCPAPEAAGGPSVFLFPPKPKDTLMISRTPEVTCVVVDVSHEDPEVKFNWYVDGVEVHNAKTKPREEQYNSTYRVVSVLTVLHQDWLNGKEYKCKVSNKALGAPIEKTISKAKGQPREPQVCTLPPSRDELTKNQVSLSCAVKGFYPSDIAVEWESNGQPENNYKTTPPVLDSDGSFFLVSKLTVDKSRWQQGNVFSCSVMHEALHNHYTQKSLSLSPG heavy 2: QVQLVQSGAEVKKPGASVKVSCKASGYTFTEFGMNWVRQAPGQGLEWMGWINTKTGEATYVEEFKGRVTFTTDTSTSTAYMELRSLRSDDTAVYYCARWDFAYYVEAMDYWGQGTTVTVSSASTKGPSVFPLAPSSKSTSGGTAALGCLVKDYFPEPVTVSWNSGALTSGVHTFPAVLQSSGLYSLSSVVTVPSSSLGTQTYICNVNHKPSNTKVDKKV[human IgG1 Fc with changes skipped]GGGGSGGGGSGGGGSGGGGSHVKLQESGPGLVQPSQSLSLTCTVSGFSLTDYGVHWVRQSPGKGLEWLGVIWSGGGTAYNTALISRLNIYRDNSKNQVFLEMNSLQAEDTAMYYCARRGSYPYNYFDAWGQGTTVTVSSAST light: DIQMTQSPSSLSASVGDRVTITCKASAAVGTYVAWYQQKPGKAPKLLIYSASYRKRGVPSRFSGSGSGTDFTLTISSLQPEDFATYYCHQYYTYPLFTFGQGTKLEIKRTVAAPSVFIFPPSDEQLKSGTASVVCLLNNFYPREAKVQWKVDNALQSGNSQESVTEQDSKDSTYSLSSTLTLSKADYEKHKVYACEVTHQGLSSPVTKSFNRGEC | lack of Pb-DOTA binding capability |  | 
3 |  | P1AF7784: <CEA> CH1A1A N-terminal fusion split antibody with Dotam-VH; SEQ ID NO: 112, 114, light chain 115 (antibody) heavy 1: QVQLVQSGAEVKKPGASVKVSCKASGYTFTEFGMNWVRQAPGQGLEWMGWINTKTGEATYVEEFKGRVTFTTDTSTSTAYMELRSLRSDDTAVYYCARWDFAYYVEAMDYWGQGTTVTVSSASTKGPSVFPLAPSSKSTSGGTAALGCLVKDYFPEPVTVSWNSGALTSGVHTFPAVLQSSGLYSLSSVVTVPSSSLGTQTYICNVNHKPSNTKVDKKV[human IgG1 Fc with changes skipped] heavy 2: GVTLKESGPVLVKPTETLTLTCTVSGFSLSTYSMSWIRQPPGKALEWLGFIGSRGDTYYASWAKGRLTISKDTSKSQVVLTMTNMDPVDTATYYCARERDPYGGGAYPPHLWGRGTLVTVSSGGGGSGGGGSGGGGSGGSGGDKTHTCPPCPAPEAAGGPSVFLFPPKPKDTLMISRTPEVTCVVVDVSHEDPEVKFNWYVDGVEVHNAKTKPREEQYNSTYRVVSVLTVLHQDWLNGKEYKCKVSNKALGAPIEKTISKAKGQPREPQVCTLPPSRDELTKNQVSLSCAVKGFYPSDIAVEWESNGQPENNYKTTPPVLDSDGSFFLVSKLTVDKSRWQQGNVFSCSVMHEALHNHYTQKSLSLSPGK light: DIQMTQSPSSLSASVGDRVTITCKASAAVGTYVAWYQQKPGKAPKLLIYSASYRKRGVPSRFSGSGSGTDFTLTISSLQPEDFATYYCHQYYTYPLFTFGQGTKLEIKRTVAAPSVFIFPPSDEQLKSGTASVVCLLNNFYPREAKVQWKVDNALQSGNSQESVTEQDSKDSTYSLSSTLTLSKADYEKHKVYACEVTHQGLSSPVTKSFNRGEC |  | 2.0 | 0
4 |  | P1AF7782: <CEA> CH1A1A N-terminal fusion split antibody with Dotam-VL; SEQ ID NO: 112, 113, light chain 115 (antibody) heavy 1: QVQLVQSGAEVKKPGASVKVSCKASGYTFTEFGMNWVRQAPGQGLEWMGWINTKTGEATYVEEFKGRVTFTTDTSTSTAYMELRSLRSDDTAVYYCARWDFAYYVEAMDYWGQGTTVTVSSASTKGPSVFPLAPSSKSTSGGTAALGCLVKDYFPEPVTVSWNSGALTSGVHTFPAVLQSSGLYSLSSVVTVPSSSLGTQTYICNVNHKPSNTKVDKKV[human IgG1 Fc with changes skipped] heavy 2: SIQMTQSPSSLSASVGDRVTITCQSSHSVYSDNDLAWYQQKPGKAPKLLIYQASKLASGVPSRFSGSGSGTDFTLTISSLQPEDFATYYCLGGYDDESDTYGFGGGTKVEIKGGGGSGGGGSGGGGSGGSGGDKTHTCPPCPAPEAAGGPSVFLFPPKPKDTLMISRTPEVTCVVVDVSHEDPEVKFNWYVDGVEVHNAKTKPREEQYNSTYRVVSVLTVLHQDWLNGKEYKCKVSNKALGAPIEKTISKAKGQPREPQVCTLPPSRDELTKNQVSLSCAVKGFYPSDIAVEWESNGQPENNYKTTPPVLDSDGSFFLVSKLTVDKSRWQQGNVFSCSVMHEALHNHYTQKSLSLSPGK light: DIQMTQSPSSLSASVGDRVTITCKASAAVGTYVAWYQQKPGKAPKLLIYSASYRKRGVPSRFSGSGSGTDFTLTISSLQPEDFATYYCHQYYTYPLFTFGQGTKLEIKRTVAAPSVFIFPPSDEQLKSGTASVVCLLNNFYPREAKVQWKVDNALQSGNSQESVTEQDSKDSTYSLSSTLTLSKADYEKHKVYACEVTHQGLSSPVTKSFNRGEC |  | 382 | 67.7
